Test results reported in PubChem BioAssay AID504339 (National Center for Advancing Translational Sciences (NCATS), 2011).
The campaign covered roughly 390,000 compounds. About 17,000 (4.4%) were called active. This list was built around the results that the source calls inconclusive (neither active nor inactive); the mix of calls is not that of the screen. The call rests on the fitted dose curve; in most records, active means well fitted inhibition curve with a large enough effect; inconclusive means small, poorly fitted or top-dose-only effect; inactive means no such curve, though single readings can be large or run the other way. Potencies of inconclusive entries are doubtful fits and often do not repeat.

Target: Lysine-specific demethylase 4A (Homo sapiens) (UniProt O75164)
Sequence of UniProt O75164 (O75164 whole entry, looked up, the tested form may be a part): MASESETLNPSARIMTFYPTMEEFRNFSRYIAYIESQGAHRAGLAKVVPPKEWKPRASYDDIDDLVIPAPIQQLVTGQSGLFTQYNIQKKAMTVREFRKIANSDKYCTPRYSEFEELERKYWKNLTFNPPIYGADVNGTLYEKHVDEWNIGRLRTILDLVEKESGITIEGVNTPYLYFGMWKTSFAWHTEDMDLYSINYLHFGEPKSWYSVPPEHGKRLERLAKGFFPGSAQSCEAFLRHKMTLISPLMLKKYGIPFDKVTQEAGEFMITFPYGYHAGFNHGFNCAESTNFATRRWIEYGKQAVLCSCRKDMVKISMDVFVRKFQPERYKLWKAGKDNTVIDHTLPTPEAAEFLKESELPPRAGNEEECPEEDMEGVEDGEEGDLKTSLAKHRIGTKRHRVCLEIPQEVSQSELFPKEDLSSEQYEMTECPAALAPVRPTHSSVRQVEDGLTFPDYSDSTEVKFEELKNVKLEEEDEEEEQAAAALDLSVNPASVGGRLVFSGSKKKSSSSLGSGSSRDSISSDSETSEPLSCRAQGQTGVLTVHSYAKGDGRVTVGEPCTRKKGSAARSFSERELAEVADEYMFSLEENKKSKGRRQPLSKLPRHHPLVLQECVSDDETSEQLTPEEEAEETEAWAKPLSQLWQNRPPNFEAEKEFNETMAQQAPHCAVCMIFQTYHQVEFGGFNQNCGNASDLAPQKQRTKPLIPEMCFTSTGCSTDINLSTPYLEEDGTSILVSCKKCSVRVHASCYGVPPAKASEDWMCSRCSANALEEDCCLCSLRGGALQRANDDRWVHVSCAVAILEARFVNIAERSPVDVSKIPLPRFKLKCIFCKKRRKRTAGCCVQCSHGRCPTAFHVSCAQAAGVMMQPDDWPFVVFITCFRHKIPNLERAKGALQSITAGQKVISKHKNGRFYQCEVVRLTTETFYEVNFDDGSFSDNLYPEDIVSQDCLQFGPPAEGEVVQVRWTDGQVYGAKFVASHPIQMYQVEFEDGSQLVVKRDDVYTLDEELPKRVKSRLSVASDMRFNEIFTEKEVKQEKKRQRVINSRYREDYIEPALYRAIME
Test: qHTS Assay for Inhibitors of JMJD2A-Tudor Domain; further: nearly all actives have a fitted effect of over 50% in size
Details: AlphaScreen JMJD2A-Tudor / H3K4me3 peptide binding; activity change, negative = inhibition: at 114 µM (top of the series)
On the % scale 0 is the no-effect control and ±100 the full control effect; potency means the concentration at half of the fitted maximal effect; tags describe the fitted curve by direction and shape.

Potency, inconclusive:
COc1ccc(Cn2c(C(=O)O)c(CNCCc3ccccc3Cl)c3ccc(C)cc32)cc1 50.1 µM [inhibitor, partial curve]
COc1ccc(-c2nc3ccc(C)cn3c2NCc2ccc3c(c2)OCO3)cc1 63.1 µM [inhibitor, partial curve]
CCOC(=O)c1cc2c(=O)n3ccccc3nc2n(Cc2ccco2)c1=NC(=O)c1ccccc1OC 89.1 µM [inhibitor, partial curve]
COc1cc(NC(=O)c2oc3ccccc3c2C)ccc1NC(=O)c1ccco1 39.8 µM [inhibitor, partial curve]
CC(=O)c1cccc(S(=O)(=O)N2CCN(CCOc3ccccc3)CC2)c1 100 µM [inhibitor, partial curve]
CC(=O)OC1CSc2nc3ccccc3n2C1 (stereo not drawn) 3.55 µM [inhibitor, partial curve, poor fit]
COc1cc(O)c(C(=O)/C=C/c2ccccc2)c(OC)c1 31.6 µM [inhibitor, partial curve]
Cc1ccc(C)c(NNC(=O)C(=O)NNc2cc(C)ccc2C)c1 79.4 µM [inhibitor, single point]
Cc1ccc(-c2cc(-c3ccccc3)nc(NN)n2)cc1 56.2 µM [inhibitor, partial curve]
CC(C)CCn1c(=O)c2sccc2n2c(CCCC(=O)N3CCC(N4CCCCC4)CC3)nnc12 25.1 µM [inhibitor, full curve]
Cc1cnc(NC(=O)CCNC(=O)c2ccc([N+](=O)[O-])cc2)s1 15.8 µM [inhibitor, partial curve, poor fit]
Cc1nn(Cc2ccccc2Cl)c2sc(C(=O)NCCCn3ccnc3)cc12 50.1 µM [inhibitor, partial curve]
C(=N/n1c2ccccc2c2ccccc21)/c1ccco1 39.8 µM [inhibitor, partial curve, poor fit]
CCCN(CCC)CC(O)Cn1cc(/C=C/C(=O)c2ccc(OCC)cc2)c2ccccc21 (stereo not drawn) 28.2 µM [inhibitor, full curve]
Cc1[nH]c2ccc(C(=O)N3CCN(c4cccc(Cl)c4)CC3)cc2c1C 44.7 µM [inhibitor, partial curve]
COc1ccc2c(c1OC)C(=O)OC2Nc1nc(-c2cccc([N+](=O)[O-])c2)cs1 (stereo not drawn) 89.1 µM [inhibitor, single point]
CCOc1cc2c(cc1OC)C(c1cccc([N+](=O)[O-])c1)NCC2 (stereo not drawn) 12.6 µM [inhibitor, partial curve, poor fit]
O=C(N/N=C/c1cc([N+](=O)[O-])ccc1O)c1cccc2cc[nH]c12 79.4 µM [inhibitor, single point]
COc1ccc(Nc2nc(N)nc(CSc3nc4cc(OC)ccc4s3)n2)cc1 25.1 µM [inhibitor, full curve]
COc1ccc(N2CCN(S(=O)(=O)c3ccc4c(c3)CC(=O)N4)CC2)cc1 141 µM [inhibitor, partial curve]
COc1ccc(C(=S)N2CCOCC2)cc1OC(=O)c1cccc([N+](=O)[O-])c1 39.8 µM [inhibitor, partial curve]
CCCc1cc(C(=O)Cc2ccc(C(=O)OCC)o2)c(O)cc1O 79.4 µM [inhibitor, single point]
COc1ccccc1C1C=C(c2ccc(Cl)cc2)Nc2nc(-c3ccc(Cl)cc3)nn21 (stereo not drawn) 11.2 µM [inhibitor, partial curve]
O=C(O)c1cc(N/N=C2/CC(c3ccccc3)Oc3ccccc32)ccc1Cl (stereo not drawn) 11.2 µM [inhibitor, full curve, poor fit]
O=C(Nc1cccc(NC(=O)c2ccco2)c1)c1ccc2c(c1)OCO2 100 µM [inhibitor, single point]
CCOc1ccccc1N1CCN(C(=O)c2cc3c(C)cc(C)cc3[nH]2)CC1 15.8 µM [inhibitor, full curve, poor fit]
Clc1ccc2c(NNc3ccccc3Cl)ccnc2c1 3.16 µM [inhibitor, full curve]
c1ccc(COc2ccc(Oc3nc(N4CCCCC4)nc(N4CCOCC4)n3)nn2)cc1 63.1 µM [inhibitor, partial curve, poor fit]
Cc1cccc(Nc2nc(N)c([N+](=O)[O-])c(N3CC(C)OC(C)C3)n2)c1 (stereo not drawn) 50.1 µM [inhibitor, partial curve]
O=C(/C=C/c1ccc2c(c1)OCO2)NCc1ccco1 56.2 µM [inhibitor, partial curve]
CC(C)(C)C(=O)NNC(=O)c1cnccn1 3.55 µM [inhibitor, single point]

Potency, inactive:
O=C(c1cc(-c2ccccc2)on1)N1CCCCCC1
CC(C)NC(=O)c1cc2c(Cl)nc3ccccc3c2s1
O=C(CSc1nccn1-c1ccccc1)N1CCc2ccccc21
O=C(Cn1c(=O)n(-c2ccc(F)cc2)c(=O)c2sccc21)Nc1cccc(C(F)(F)F)c1
O=C(Nc1ccccc1C(F)(F)F)c1noc2c1CCCCC2
COC(=O)c1c(NC(=O)C2=COCCO2)sc(C)c1C
COc1ccc(CNC(=O)C2CCNCC2)cc1
CCOC(=O)C(=NCCCN1CCOCC1)NNc1cccc(C(F)(F)F)c1
COc1ccc(NC2CCCN(C(=O)CCn3cccn3)C2)cc1 (stereo not drawn)
COc1ccccc1/C=C/C(=O)OCC(=O)NC1CCS(=O)(=O)C1 (stereo not drawn)
O=C(CCCN=C1NS(=O)(=O)c2ccccc21)OCc1ccc(F)cc1
CN(CC(=O)Nc1cccc(F)c1)C(=O)c1cccnc1Sc1ccccc1Cl
COc1cc(C(=O)NCc2nnc(SCC(=O)Nc3cccc(C)c3)o2)cc(OC)c1OC
O=C(NNc1c(F)c(F)cc(F)c1F)C1CCN(S(=O)(=O)c2ccccc2F)CC1
CCc1ccc(NC(=O)c2cc3c(=O)n(Cc4cccnc4)ccc3nc2C)cc1
CCOc1ccc(N2C(=O)C3C(c4ccc(OC)cc4OC)NC(CCSC)(C(=O)OC)C3C2=O)cc1 (stereo not drawn)
Cc1cc(-c2ccccc2)c2ccc(NC(=O)C(C)(C)C)nc2n1
Cc1ccc(-c2ccc(/C=N\NC(=O)c3cc4c(ccc5ccccc54)o3)o2)cc1[N+](=O)[O-]
C=CCOc1cccc(C(=O)Nc2ncn[nH]2)c1
O=C(NCc1ccc(F)cc1)C1CCCN(C(=O)NCc2ccccc2)C1 (stereo not drawn)
Cc1ccccc1CSc1nc2cccnc2n1Cc1ccc(C(=O)NCCc2cccs2)cc1
COc1ccc(Cl)cc1N(C)C(=O)C(=O)Nc1ccc2nc3n(c(=O)c2c1)CCCCC3
C/C(N)=C(/C#N)C(=O)COC(=O)C1CCN(S(=O)(=O)c2cccs2)CC1
COc1ccc(C2NC(=O)N(C)C3=C2C(=O)N(c2ccc(C)cc2)C3)cc1 (stereo not drawn)
CSCCC(NC=O)C(=O)NC(C)C(=O)O (stereo not drawn)

Potency, active:
COc1cc(C(=S)N2CCN(C(c3ccccc3)c3ccccc3)CC2)cc(OC)c1O 56.2 µM
Cc1c(CBr)[n+](=O)c2c(n1[O-])C(Br)CCC2Br (stereo not drawn) 20 µM
O=C(O)c1ccccc1NS(=O)(=O)c1ccc(NN=Cc2ccc(F)cc2)c([N+](=O)[O-])c1 44.7 µM
CCOc1ccc(Nc2ccc([N+](=O)[O-])c3nonc23)cc1 35.5 µM
Cc1ccc(N(Cc2ccco2)C(=O)c2ccc(N3CCCCC3)c([N+](=O)[O-])c2)cc1 17.8 µM
CCc1cccc(C)c1Nc1c(-c2ccc(N3CCOCC3)cc2)nc2ncccn12 39.8 µM
COC(Cc1n[nH]c(=S)n1-c1ccccc1)OC 17.8 µM
Cc1ccc(OCCCCN2CCCCC2)c(Br)c1 0.794 µM
CN1CCN(CCCCOc2ccc(Br)cc2)CC1 20 µM
O=C(CN1CCSCC1)N/N=C/c1ccc(F)cc1 3.16 µM
Brc1cccc(OCCCCn2cncn2)c1 25.1 µM
COc1cccc2c1NC(C(=O)O)C1CC=CC21 (stereo not drawn) 8.91 µM
Cc1ccc(S(=O)(=O)CCC(=O)Nc2nnc(-c3cccs3)o2)cc1 11.2 µM
CCn1c(C)c(C)c2cc(C(=O)N3CCc4ccccc4C3)ccc21 39.8 µM
COC(=O)c1ccccc1NC(=S)N1CCN(c2ccc(OC)cc2)CC1 56.2 µM
C=CCOc1ccc(C2C(C(=O)c3ccco3)=C(O)C(=O)N2c2nnc(C)s2)cc1 (stereo not drawn) 28.2 µM
COc1cc(CNCc2ccccn2)ccc1OCc1ccccc1Cl 44.7 µM
COCCn1c(SCC(=O)c2ccc(Cl)cc2)nnc1C(C)C 50.1 µM
CCCCN1/C(=C/c2cccc[n+]2C)Sc2cc(NC(C)=O)ccc21 28.2 µM
Cc1ccccc1-c1noc(-c2ccccc2OCC(=O)Nc2ccccc2[N+](=O)[O-])n1 20 µM
Cc1ccc2c(c1)c(C)cc(=O)n2CCC(=O)O 89.1 µM

Activity change, negative = inhibition, inconclusive:
CCOCCCNCc1ccc(OCCC(C)C)c(OC)c1 -100% [inhibitor]
